From the antibiotic and cytotoxicity screens of Wong et al. (2023)
This is one part of the list.

test system: HSkMC (human skeletal muscle cells); assay: cytotoxicity call (relative viability < 0.9); conditions: 10 µM

Row | SMILES | cytotoxicity call
1 | COc1ccc(NC(=O)N(C)C[C@@H]2Oc3ccc(NC(=O)Nc4ccc(C(F)(F)F)cc4)cc3CC(=O)N([C@H](C)CO)C[C@@H]2C)cc1 | inactive
2 | C[C@H](CO)N1C[C@H](C)[C@H](CN(C)C(=O)Nc2ccc(C(F)(F)F)cc2)OCCCC[C@H](C)Oc2ccc(NS(=O)(=O)c3ccc(Cl)cc3)cc2C1=O | inactive
3 | COc1ccc(NC(=O)N(C)C[C@@H]2Oc3ccc(NC(=O)Nc4cccc5ccccc45)cc3C(=O)N([C@H](C)CO)C[C@H]2C)cc1 | inactive
4 | CCc1nc2ccc(C(=O)Nc3cccc(NS(C)(=O)=O)c3)cn2c1N(C)CCN1CCOCC1 | inactive
5 | C[C@@H]1CCCCO[C@@H](CN(C)S(=O)(=O)c2ccc(F)cc2)[C@H](C)CN([C@H](C)CO)C(=O)c2cc(NC(=O)Cc3ccccc3)ccc2O1 | inactive
6 | CCCNC(=O)N[C@@H]1CC[C@@H](CC(=O)N2CCN(C)CC2)O[C@H]1CO | inactive
7 | C[C@H]1CCCCO[C@@H](CN(C)S(=O)(=O)c2cccs2)[C@@H](C)CN([C@@H](C)CO)C(=O)c2cc(NC(=O)C3CCCCC3)ccc2O1 | inactive
8 | CC(=O)N1C[C@H](O)C[C@H]1C(=O)O | inactive
